Assay results: PubChem BioAssay AID720709 (National Center for Advancing Translational Sciences (NCATS), 2013)
The whole screen tested about 360,000 compounds, of which about 520 (0.14%) were called active. The inconclusive results got no clear call from the source; some entries with a clear call stand among them for comparison. Calls follow the shape of the dose curve; as a rule, active = well fitted inhibition curve with a large enough effect; inconclusive = small, poorly fitted or top-dose-only effect; inactive = no such curve, though single readings can be large or run the other way. A potency beside an inconclusive call is a rough fit, not a confirmed value.

target: Rap guanine nucleotide exchange factor 3 (Homo sapiens) (UniProt O95398); experiment: qHTS for Antagonist of cAMP-regulated guanine nucleotide exchange factor 3 (EPAC1): primary screen; details: EPAC1 GEF assay, Rap1b-BODIPY-GDP exchange fluorescence; activity change, negative = inhibition: at 115 µM (top of the series); also: nearly all actives have a fitted effect of over 50% in size;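 as to activity change, negative = inhibition: plate controls were vehicle for no effect and positive control for full effect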
Sequence of UniProt O95398 (O95398 whole entry, looked up): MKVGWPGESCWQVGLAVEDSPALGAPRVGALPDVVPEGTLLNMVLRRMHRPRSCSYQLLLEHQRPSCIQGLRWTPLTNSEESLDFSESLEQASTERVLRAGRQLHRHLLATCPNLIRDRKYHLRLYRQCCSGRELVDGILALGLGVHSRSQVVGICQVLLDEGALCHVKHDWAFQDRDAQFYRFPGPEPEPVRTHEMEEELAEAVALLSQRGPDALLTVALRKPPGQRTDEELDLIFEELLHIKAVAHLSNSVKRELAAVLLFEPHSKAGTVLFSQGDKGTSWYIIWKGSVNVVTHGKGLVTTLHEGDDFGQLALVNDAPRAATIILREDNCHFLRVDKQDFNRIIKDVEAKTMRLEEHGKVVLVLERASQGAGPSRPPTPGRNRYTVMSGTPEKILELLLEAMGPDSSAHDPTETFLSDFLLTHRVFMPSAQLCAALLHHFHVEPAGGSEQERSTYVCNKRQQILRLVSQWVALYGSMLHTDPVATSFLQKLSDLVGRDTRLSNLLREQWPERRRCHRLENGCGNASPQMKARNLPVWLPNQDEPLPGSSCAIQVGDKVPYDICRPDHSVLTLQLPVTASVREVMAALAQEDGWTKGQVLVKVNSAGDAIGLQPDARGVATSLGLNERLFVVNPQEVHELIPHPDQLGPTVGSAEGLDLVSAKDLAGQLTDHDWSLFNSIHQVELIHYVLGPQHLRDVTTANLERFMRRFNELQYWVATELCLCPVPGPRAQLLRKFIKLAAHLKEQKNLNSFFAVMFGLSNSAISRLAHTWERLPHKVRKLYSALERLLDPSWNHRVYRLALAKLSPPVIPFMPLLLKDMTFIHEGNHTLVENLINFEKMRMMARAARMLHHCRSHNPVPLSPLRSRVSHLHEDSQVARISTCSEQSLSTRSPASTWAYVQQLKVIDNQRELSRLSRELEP
Potency is read from the fitted curve at half-maximal effect; tags tell the direction and shape of the fitted curve.

Potency, inconclusive:
COc1cccc(C(=O)Nc2cccc(-c3ccc(N4CCOCC4)nn3)c2)c1OC 79.4 µM [inhibitor, partial curve], Nc1nc2n(n1)C(c1ccccc1Cl)CC(c1ccc(F)cc1)N2 (configuration not stated) 50.1 µM [inhibitor, partial curve], CC(C)NC(=O)N(C)C[C@H]1Oc2ccc(NC(=O)CCN3CCOCC3)cc2C(=O)N([C@H](C)CO)C[C@@H]1C 79.4 µM [inhibitor, partial curve], N#CCn1cc(/C=N/NC(=O)c2cc3c(ccc4ccccc43)o2)c2ccccc21 112 µM [inhibitor, partial curve, poor fit], Cc1ccc(C(C(=O)NC2CCCC2)N2CCCC(C)C2)cc1 (configuration not stated) 14.1 µM [inhibitor, partial curve], CCCC(NC(=O)Cc1c(C)c2cc3c(C)c(C)oc3c(C)c2oc1=O)C(=O)N[C@@H](Cc1ccccc1)C(=O)O (some centres not stated) 89.1 µM [inhibitor, single point], Cc1ccc(C(=O)OCC(=O)c2ccc(CC(=O)N3CCOCC3)s2)c(C)c1 89.1 µM [inhibitor, partial curve], Cc1c(Cl)cccc1N/C(=N/S(=O)(=O)c1cccs1)c1ccccc1 50.1 µM [inhibitor, partial curve], CC(=O)c1cccc(NC(=O)CSc2nc(C3CC3)nc3ccccc23)c1 56.2 µM [inhibitor, partial curve], CN(C)c1cccc(C(=O)NCCCn2ccc3ccccc32)c1 100 µM [inhibitor, partial curve, poor fit], CCC(Sc1nc2ccsc2c(=O)n1Cc1ccc(C(=O)O)cc1)C(=O)Nc1ccc(C)c(Cl)c1 (configuration not stated) 50.1 µM [inhibitor, partial curve], CCOc1ccc(-c2c(C(=O)N/N=C(\C)c3ccccc3OC)nnn2-c2nonc2N)cc1 112 µM [inhibitor, partial curve, poor fit], Cc1cccc(OC(C)C(=O)Nc2ccc(S(=O)(=O)N3CCCC3)cc2)c1 (configuration not stated) 50.1 µM [inhibitor, partial curve], CC(=O)NC1C(=O)N(CCN2CCOCC2)c2ccc(F)cc21 (configuration not stated) 25.1 µM [inhibitor, partial curve], CC1(C)C2CCC1(CS(=O)(=O)NCc1ccc(C(=O)O)cc1)C(=O)C2 (configuration not stated) 100 µM [inhibitor, single point], Clc1ccc(/C(Cc2nc3ccccc3[nH]2)=N\Nc2ccccc2)cc1 100 µM [inhibitor, single point], C=C(C(=O)Nc1ccccc1)c1ccc(C)cc1 100 µM [inhibitor, single point], O=C(NCc1ccccc1)c1sc(=S)n2c1[nH]c(=O)c1ccccc12 89.1 µM [inhibitor, single point], CCCCCOc1ccc(NC2=CC(=O)CCC2)cc1 10 µM [inhibitor, partial curve], Cc1ccc(OCC(=O)N/N=C/C=C/c2ccco2)c(Br)c1 39.8 µM [inhibitor, single point], Cc1oc2c(cc(NS(=O)(=O)c3ccc(Cl)cc3)c3ccccc32)c1C(=O)O 89.1 µM [inhibitor, partial curve], C=CCn1c(=NC(=O)c2sc3ccccc3c2Cl)sc2cc(S(N)(=O)=O)ccc21 25.1 µM [inhibitor, single point], O=C(CN1C(=O)/C(=C2/SC(=S)N(CCS(=O)(=O)O)C2=O)c2ccccc21)Nc1cccc(Br)c1 12.6 µM [inhibitor, full curve, poor fit], O=C(NCc1ccc(F)cc1)c1cccc2c1C(=O)c1ccc(N3CCOCC3)cc1S2(=O)=O 100 µM [inhibitor, single point], Cc1cc(C)cc(NS(=O)(=O)c2ccc(Oc3ncc(C(F)(F)F)cc3Cl)cc2)c1 79.4 µM [inhibitor, partial curve], CCCCc1ccc(NC(=O)CSc2nc(=O)n(CCN(CC)CC)c3c2CCCC3)cc1 39.8 µM [inhibitor, single point], O=C(Nc1ccccc1C(=O)O)c1cccc(NC(=O)c2ccc(Br)o2)c1 100 µM [inhibitor, single point], O=[N+]([O-])c1cc(CN2CCCC2)c2cccnc2c1O 79.4 µM [inhibitor, partial curve], CCOc1ccccc1NC(=S)N(CCC(C)C)C1CCN(C(C)=O)CC1 39.8 µM [inhibitor, single point], O=C(OC1CCCCC1)c1ccc(NC(=O)c2ccco2)cc1 79.4 µM [inhibitor, partial curve], CC(=O)OC1OCCOC1NC(=S)NCc1ccco1 (configuration not stated) 39.8 µM [inhibitor, full curve, poor fit], Cc1cc(C)cc(N(C(=O)c2csnn2)C(C(=O)NC2CCCC2)c2ccccn2)c1 (configuration not stated) 79.4 µM [inhibitor, single point], Cc1ccc(NC(=O)COc2ccccc2[N+](=O)[O-])nc1 22.4 µM [inhibitor, single point], O=C(NCc1ccco1)C(c1ccco1)N(Cc1cccs1)C(=O)Cn1nnc2ccccc21 (configuration not stated) 39.8 µM [inhibitor, full curve, poor fit], COc1ccc(OC)c(C2C/C(=N/O)C(C)C(c3cc(OC)ccc3OC)N2)c1 (configuration not stated) 11.2 µM [inhibitor, full curve, poor fit], CN(C(=O)CSc1nc2cc([N+](=O)[O-])ccc2n1-c1ccc(F)cc1)C1CCS(=O)(=O)C1 (configuration not stated) 44.7 µM [inhibitor, partial curve], CCCN1CCC(NCc2cn(C)nc2-c2ccc(Oc3ccccc3)cc2)CC1 56.2 µM [inhibitor, partial curve], COc1cccc(N2CCN(C(=S)Nc3cc(C)cc(C)c3)CC2)c1 39.8 µM [inhibitor, partial curve], COc1ccc(/C=N/NC(=O)COc2ccc(Cl)cc2Cl)cc1Cn1nc(C)cc1C 2.82 µM [inhibitor, full curve], CCC/C(O)=C1\C(=O)CCCC1=NCCc1c(C)[nH]c2ccc(OC)cc12 25.1 µM [inhibitor, full curve, poor fit], CC1=NN(c2ccc(Cl)c(C(=O)O)c2)C(=O)/C1=C/c1ccc(-c2ccccc2[N+](=O)[O-])o1 56.2 µM [inhibitor, partial curve], CN(C)S(=O)(=O)c1ccc(SCC(=O)Nc2cccc(S(=O)(=O)N3CCCC3)c2)nc1 89.1 µM [inhibitor, single point], O=C(NC(=S)Nc1ccccc1Br)c1ccco1 89.1 µM [inhibitor, partial curve, poor fit]

Potency, active:
CCCCCc1c2c(cc(O)c1C(=O)O)OC(=O)c1c(cc(OC)cc1C(=O)CCCC)O2 50.1 µM, Cc1cccc(N2CCN(S(=O)(=O)c3ccc4c(c3)CCN4C(=O)CCC(=O)O)CC2C)c1 (configuration not stated) 20 µM, Cc1c(C(=O)OCC(=O)N2CCCC2=O)oc2ccccc12 79.4 µM, O=C(N[C@H](Cc1ccc(Cl)cc1)C(=O)O)OCC1c2ccccc2-c2ccccc21 50.1 µM

Potency, inactive:
CC[C@H]1C(c2ccc(F)cc2)=NN(c2ccccc2)[C@@H]1CO, Cc1ccc(C(=O)Nc2nc(C(N)Cc3ccc(C(F)(F)F)cc3)cs2)cc1 (configuration not stated), O=C(O)c1ccc(N=Cc2c(O)ccc3ccccc23)cc1, CN1/C(=C/C=N/n2cnnc2)C(C)(C)c2ccccc21, CO/N=C(/CN1CCCCC1)c1ccc(Cl)cc1, CCN(CC)c1ccc(NC(=O)CSc2nc(C3CC3)nc3ccccc23)cc1C, Cc1noc(C)c1NC(=O)N1CCN(Cc2ccccc2)CC1, S=C(NCCN1CCOCC1)Nc1cccc(Cl)c1, Cc1nc(NS(=O)(=O)c2ccccc2)sc1NC(=O)Nc1ccc(Cl)cc1, CN1CCN(C(=O)c2cc(COc3ccccc3)on2)[C@@H](c2ccccc2)C1, Cc1ccc(C)n1Cc1ccc(C(=O)O)cc1, CCc1nc2ccc(C(=O)N3CCN(c4ccccc4)CC3)cc2nc1CC, O=C(CSc1nnc(-c2ccccn2)o1)Nc1ccc(F)cc1, Cc1ccc2oc(=O)n(CC(=O)N3CCOCC3)c2c1, CCOc1ccc(C2NC(=O)c3ccccc3O2)cc1OC (configuration not stated), C#CCN(C[C@@H]1[C@@H](OC(=O)Nc2cccs2)[C@@H](OC(=O)Nc2cccs2)Cn2c(=O)n(CCCCCC)c(=O)n21)S(=O)(=O)c1ccc(C)cc1, CC(C)(C)C1CCC(=O)N2CCC[C@]2(c2ccccc2)C1 (some centres not stated), COCCNc1nc(Nc2ccccc2Cl)c2sccc2n1, CSc1ccc(/C=N/Nc2ccc(Cl)c(C(=O)O)c2)cc1

Activity change, negative = inhibition, inconclusive:
O=C(/C=C/c1cn(-c2ccccc2)nc1-c1ccc2c(c1)OCCO2)NCCO 12.7% [inhibitor]
